Out of some 340,000 compounds screened, about 6,900 (2%) were called active. Cut-off read from the data, not from the text of the source: active = inhibition above about 30%; inactive = below that, where a call was filed. The entries are a selection whose mix differs from that of the whole data set. Where no call is shown, the source filed none.

UniProt P14416, sequence (P14416 whole entry, looked up): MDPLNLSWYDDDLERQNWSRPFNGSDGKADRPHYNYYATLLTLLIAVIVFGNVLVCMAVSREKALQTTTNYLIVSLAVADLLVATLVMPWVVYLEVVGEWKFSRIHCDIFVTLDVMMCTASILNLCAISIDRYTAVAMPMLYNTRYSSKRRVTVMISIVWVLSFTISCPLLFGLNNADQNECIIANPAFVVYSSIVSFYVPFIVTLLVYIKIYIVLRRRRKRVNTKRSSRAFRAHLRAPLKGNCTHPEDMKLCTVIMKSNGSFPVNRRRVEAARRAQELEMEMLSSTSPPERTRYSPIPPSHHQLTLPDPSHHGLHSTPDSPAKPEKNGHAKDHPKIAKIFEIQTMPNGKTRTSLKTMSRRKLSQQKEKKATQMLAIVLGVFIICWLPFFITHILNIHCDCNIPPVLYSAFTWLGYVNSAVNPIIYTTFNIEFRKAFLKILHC

The target of the experiment is D(2) dopamine receptor (Homo sapiens) (UniProt P14416). The experiment in a line: HTS Assay for Allosteric Antagonists of the Human D2 Dopamine Receptor: Primary Screen for Antagonists. Note: 0% is about no effect. The note with it: HEK293 TREx D2 cells, calcium flux, dopamine EC80; at 10 µM; stronger effect = higher value. Put shortly:
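Tetracycline-induced HEK293 TREx cells expressing D2 receptor forced-coupled to calcium signalling, loaded with no-wash calcium dye. Compounds added and calcium flux read 180 s, then dopamine added at EC80 and read a further 180 s.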
A word on the inhibition: it is the change of the read-out against control, counted positive when it falls. Take `CC(=O)Nc1ccc(NS(=O)(=O)c2c(C(=O)N3CCCCCC3)c(C)n(C)c2C)cc1`: the inhibition amounted to 10.7%.
For `CN(C)c1ccc(NC(=O)Cn2c(SCc3ccc(F)cc3)nc3ccncc32)cc1` the value was -5.02%; for `COc1ccc(CCNC(=O)CSc2cn(CCNC(=O)c3c(F)cccc3F)c3ccccc23)cc1OC`, 0.757%.
Take `COc1cc2c(cc1OC)n(CC(=O)c1cc(C)ccc1C)c(=O)n1nc(CCn3nc(C)cc3C)nc21`: the inhibition was determined as 21%.
For `CC1=C(C(=O)Nc2cccnc2)C(c2ccc(C)cc2)n2nc(SCc3ccccc3F)nc2N1` (stereo not given) the value was 10%; for `Cc1c(CCNC(=O)c2ccc(C(C)(C)C)cc2)sc2nc(-c3ccc(F)cc3)nn12`, -11.8%.
Regarding `CCc1cc2c(cc3c(=O)n(CCCC(=O)NCc4cccc(Br)c4)ncn32)s1`, the inhibition was -5.42%.
For `Cc1ccc(NC(=O)C(CC(C)C)N2Cc3ccccc3C2=O)cc1F` (stereo not given) the value was 5.98%; for `CNS(=O)(=O)c1cn(CC(=O)N2CCN(c3ccc(C(C)=O)cc3)CC2)cc1S(=O)(=O)NC`, -2.56%.
Consider `CCCCC(CC)CNC(=O)Cc1ccc(-n2c(=O)[nH]c3ccccc3c2=O)cc1` (stereo not given), for which the inhibition is -0.444%.
Consider `CCCCC12CN3CC(C)(CN(C1)C3c1c[nH]c3ccccc13)C2=O` (stereo not given), for which the inhibition is 15.7%.
For `Cc1cccc(CSc2nc3c([nH]c4ccccc43)c(=O)n2C)c1`, the inhibition worked out at 1.92%.
Consider `COc1ccc(N2CCN(S(=O)(=O)c3ccc(-c4coc(C)n4)cc3)CC2)cc1`, for which the inhibition was -2.49%.
As to `CC(=O)N1c2ccc(S(=O)(=O)Nc3ccc(C)c(Cl)c3)cc2CC1C` (stereo not given), the inhibition worked out at 11.2%.
With `CCOc1ccc(CC(=O)Nc2c(C(=O)c3ccccc3)oc3ccc(Cl)cc23)cc1OCC`, the inhibition turned out to be 14.2%.
In the case of `Cc1cc2c(cc1S(=O)(=O)Nc1cccc(Cl)c1C)n(C)c(=O)c(=O)n2C`, the inhibition was -4.06%.
For `CCN1CCCC1CNC(=O)c1cc([N+](=O)[O-])c(N(C)C)cc1OC` (stereo not given) the value was active: 74.6%; for `CCOC(=O)c1cc(-c2ccccc2)n(CCC(=O)Nc2ccccc2CC)c1C`, -24.8%.
As for `CCc1ccc(CN(C)CC(=O)Nc2sccc2C#N)cc1`, the inhibition is active: 63.9%.
The figure for `Cc1cc(C)cc(N2C(=O)CSC23C(=O)N(Cc2c(F)cccc2Cl)c2ccccc23)c1` (stereo not given) is 5.53%; for `Cc1cccc2nc(-c3ccccn3)c(Nc3ccc(F)cc3)n12` it is 16.6%; for `COc1ccc(C2CC(=O)N(Cc3ccc(C)cc3)c3c2c(C)nn3-c2nc(C)cc(C)n2)c(OC)c1` (stereo not given) it is 25.5%.
For the compound `O=C(CSc1nc(=O)n(CCN2CCOCC2)c2c1CCC2)Nc1ccc(Cl)c(Cl)c1`, the inhibition was -17.5%.
For the compound `O=C(Nc1ccc(F)c(Cl)c1)Nc1c[nH]c(=O)[nH]c1=O`, the inhibition was 19.4%.
Consider `Cc1cc(C)c(N=Cc2c(O)n(-c3nccs3)c(=O)c3ccccc23)c(C)c1`, for which the inhibition was active: 41%.
For `Cc1ccc2nc(SCc3nc(-c4ccc(Cl)cc4)no3)[nH]c2c1`, the inhibition worked out at 17.8%.
For `CC(=O)Nc1ccccc1-c1nc2ccccc2n(CC(=O)Nc2cccc(C)c2C)c1=O` the value was 6.3%.
In the case of `CC(CNC(=O)c1cnn(-c2ccc(F)cc2)c1-n1cccc1)c1ccccc1` (stereo not given), the inhibition amounted to 3.86%.
In the case of `COc1ccc(C(C(=O)NC2CCCC2)N(C(=O)c2ccoc2C)c2ccc(C)cc2)cc1` (stereo not given), the inhibition is active: 50.1%.
For the compound `Cc1c(C(=O)N2CCCCCC2)c(S(=O)(=O)NCc2ccccc2)c(C)n1C`, the inhibition is -0.843%.
For `CSc1ccccc1-c1nnc(NC(=O)c2ccc3c(c2)OCCO3)o1` the value was -16.7%.
As to `CC(C)(C)C(=O)CSc1nc2ccsc2c(=O)n1Cc1ccccc1Cl`, the inhibition is -10.4%.
For `CSc1ccc(CCNC(=O)c2cc(C)nc3c2c(C)nn3-c2cccc(F)c2)cc1` the value was -1.23%; for `COc1ccc(NC(=O)c2cc3cc(C)ccc3[nH]2)cc1`, -16.1%; for `O=C(OCc1cc(=O)n2nc(-c3cccs3)sc2n1)c1ccccc1Cl`, -3.61%.
The figure for `COc1cccc(CSc2nc3n(n2)C(c2ccc(C(=O)O)cc2)C(C(=O)Nc2ccccc2)=C(C)N3)c1` (stereo not given) is 13.5%.
The figure for `CCOc1ccccc1NC(=O)CSc1nc2c(oc3ccccc32)c(=O)n1-c1ccc(F)cc1` is -8.27%; for `CCc1ccc(NC(=O)CSc2nc(C)c(C(=O)Nc3ccccc3)c(-c3ccc(OC)c(OC)c3)c2C#N)cc1` it is -6.99%.
`Cc1cc(Br)ccc1NC(=O)CSc1c2c(nc3ccccc13)CCC2`: the inhibition amounted to 1.03%.
Regarding `C#Cc1ccc(CN2CCN(CCCc3ccccc3)C(CCO)C2)cc1` (stereo not given), the inhibition is active: 74.7%.
For the compound `O=C(c1cccs1)N1CCC(N2CCN(c3ccccc3)CC2)CC1`, the inhibition was active: 54.2%.
`CCOc1ccc(CNC(=O)CCc2c(C)nn(-c3ccc(N4CCCCC4)nn3)c2C)cc1`: the inhibition was -9.32%.
As for `CCOC(=O)C(Cc1cc(C(C)=O)ccc1OC(C)C)C(=O)OCC`, the inhibition is active: 54.2%.
Consider `CC(=O)N1CCc2c(sc3c2c(=O)n(-c2ccccc2)c(=O)n3CC(=O)Nc2cc(C)cc(C)c2)C1`, for which the inhibition was -4.44%.
Turning to `CCOc1ccc(CCNC(=O)c2c(C)oc3ncn(CC(C)C)c(=O)c23)cc1OCC`, the inhibition is 1.55%.
For `CC(COc1ccccc1)N(CCCl)Cc1ccccc1` (stereo not given) the value was active: 60.9%.
In the case of `O=C(NCc1ccccc1F)C(=O)NCC(c1ccc2c(c1)OCO2)N1CCOCC1` (stereo not given), the inhibition turned out to be 4.29%.
The figure for `Cc1ccc(-n2nc(C(=O)N3CCN(c4ccccc4F)CC3)c(=O)n(C)c2=O)cc1` is -12.9%; for `CCCCCc1ccc(-c2ccc(Br)cc2)nc1` it is 2.36%.
For `CCOc1ccc(C(=O)Nc2ccc(OCc3cc(=O)n4cccc(C)c4n3)cc2)cc1` the value was 4.1%; for `COc1ccc(CN=Cc2[nH]c3ccc(Br)c(Cl)c3c2O)cc1`, active: 42.5%.
Take `O=c1[nH]c(C2CCN(S(=O)(=O)c3ccccc3C(F)(F)F)CC2)nc2c1nnn2Cc1cccc(F)c1`: the inhibition is active: 42.7%.
The figure for `COc1ccc(S(=O)(=O)NCc2cccn2Cc2cc(C)ccc2C)cc1OC` is -6.63%.
As to `CCc1nnc2c3ccccc3nc(Nc3cc(C)cc(C)c3)n12`, the inhibition is -8.53%.
As for `COc1ccc(-c2cc(-c3nc(-c4cc(OC)c(OC)c(OC)c4)no3)[nH]n2)c(OC)c1`, the inhibition was found to be 20.2%.
As for `CC(=O)NCCNC(=O)CCCc1nnc2n(CC(C)C)c(=O)c3sccc3n12`, the inhibition is 6.58%.
For the compound `COc1cccc(NC(=O)Cn2c(=O)n(Cc3ccc(F)cc3)c(=O)c3sc4ccccc4c32)c1`, the inhibition was -14.6%.
For the compound `CCc1ccc(-c2nc3cc(NC(=O)c4ccc(C)c(C)c4)ccc3o2)cc1`, the inhibition worked out at 15.4%.
`CCOc1ccc(NC(=O)c2nc(S(=O)(=O)Cc3ccccc3F)ncc2Cl)cc1`: the inhibition is -10.8%.
For `CC(O)C(O)C(O)C(O)C1NCCS1` (stereo not given), the inhibition is active: 78.9%.
Turning to `COc1ccc(S(=O)(=O)n2nc(-c3ccco3)nc2NCc2ccc(C(C)C)cc2)cc1`, the inhibition was -2.32%.
On to `COc1ccc(S(=O)(=O)N2CCN(C(=O)[C@@H]3CCC(=O)N3C3OC(=O)c4ccccc43)CC2)cc1` (stereo not given in full), for which the inhibition was active: 51.5%.
With `Cc1cccc(NC(=O)Cn2c(=O)n(CC3CCC(C(=O)NCCc4ccccc4)CC3)c(=O)c3ccccc32)c1` (stereo not given), the inhibition was -16.5%.
The figure for `Fc1ccc(Nc2nc(-c3cccc(Cl)c3)c3c(n2)-c2ccccc2OC3)c(F)c1` is 14.1%; for `Fc1ccc(-c2cc(-c3ccc(F)cc3)c3c(n2)-c2cc(F)ccc2OC3)cc1` it is 22.3%.
In the case of `O=Cc1cc(Cl)ccc1OCCN1CCC(Cc2ccccc2)CC1`, the inhibition is active: 50.9%.
Take `CCOc1ccc2nc(N3CCCC(C(=O)Nc4ccccc4CC)C3)sc2c1` (stereo not given): the inhibition was -8.3%.
Consider `CCc1ccc(NC(=O)CSc2nc(-c3ccc(C)cc3)nc3c2Cc2c(CO)cnc(C)c2O3)cc1`, for which the inhibition is -22.2%.
For the compound `CCOC(=O)c1c(NC(=O)c2cc(-c3cccc(Cl)c3)on2)sc(C)c1C`, the inhibition stood at 3.36%.
Turning to `CCOC(=O)c1cc(-c2ccc(F)cc2)n(CCC(=O)NC2CCC(C)CC2)c1C` (stereo not given), the inhibition is -0.296%.
`CCN1CCN(C2=CC3=CC(=C(C#N)C#N)CCC3CC2)CC1` (stereo not given): the inhibition was active: 79.4%.
Turning to `COc1ccc(CNC(=O)CCc2c(C)nc3cc(-c4ccc(OC)cc4OC)nn3c2C)cc1`, the inhibition was 3.86%.
As to `CNc1ccc(-c2nc(-c3ccncc3)no2)cc1[N+](=O)[O-]`, the inhibition stood at 4.69%.
In the case of `Cc1ccc(CNc2cc(C)nc3nc(-c4ccc(C)cc4)nn23)cc1`, the inhibition was -5.56%.
With `O=c1[nH]c(CN2CCN(C/C=C/c3ccccc3)CC2)nc2ccccc12`, the inhibition is active: 63.4%.
For `O=C(NC1CCCCC1)c1ccc2c(c1)N(Cc1cccc(Cl)c1)C(=O)c1ccccc1S2(=O)=O`, the inhibition is 4.06%.
With `COC(=O)c1ccccc1NC(=O)CSc1nc2ccccc2nc1Cc1ccc(F)cc1`, the inhibition was 20.4%.
As for `COc1ccc(N2CCN(C(=O)C(CC(C)C)NS(=O)(=O)c3ccc4nc(C)sc4c3)CC2)cc1` (stereo not given), the inhibition stood at 2.14%.
Regarding `Cc1ccc(-c2noc(CCC(=O)NCc3ccco3)n2)cc1`, the inhibition is active: 60.3%.
Turning to `CC(C)CCNc1nc(Nc2ccccc2)c2cnn(C)c2n1`, the inhibition came to 4.5%.
As to `O=C(Cc1ccc(Cl)cc1)NCCc1csc2nc(-c3ccccc3F)nn12`, the inhibition turned out to be 1.98%.
`CCC(C)(C)NC(=O)C(NS(=O)(=O)c1cccs1)c1ccccc1` (stereo not given): the inhibition was determined as 11.1%.
The figure for `Cc1cc(F)ccc1Nc1nc2ccc(Cl)cc2n2cnnc12` is 5.8%; for `CCOC(=O)c1ccc(-n2c(CCC(=O)O)ccc2-c2ccccc2)cc1O` it is -13.8%.
For the compound `Cc1ccc(S(=O)(=O)N(C)C)cc1NC(=S)NCCc1ccccn1`, the inhibition was active: 34.1%.
`CNC(=O)NC(=O)C(C)N1CCN(C/C=C/c2ccccc2)CC1` (stereo not given): the inhibition is active: 33.5%.
In the case of `Cc1ccc(C)c(NC(=O)c2nc(S(=O)(=O)Cc3ccc(F)cc3)ncc2Cl)c1`, the inhibition was found to be 14.3%.
Regarding `CSCCC(NS(=O)(=O)c1ccc2c(c1)oc(=O)n2C)C(=O)NCc1ccc(Cl)cc1` (stereo not given), the inhibition is -2.68%.
The figure for `Cc1ccc(C(=O)Nc2cc(-c3cn4cccnc4n3)ccc2C)cc1C` is 9.48%; for `O=C(Nc1cc(-c2cccc(Cl)c2)nn1-c1ccccc1)c1ccccc1F` it is -23%; for `CCc1ccccc1S(=O)(=O)Cc1ccc(C(=O)NCCc2ccc(Cl)cc2)o1` it is 15.2%.
With `CCCS(=O)(=O)N1CCC(C(=O)NCCN2CCC(Cc3ccccc3)CC2)CC1`, the inhibition is active: 33.9%.
For `CCS(=O)(=O)c1ncc(N(Cc2ccccc2)Cc2ccco2)c(C(=O)Nc2ccccc2C)n1`, the inhibition was -5.75%.
With `Cc1ccc(-n2nnnc2SCc2ccc(C(=O)O)cc2)cc1C`, the inhibition is active: 30.3%.
Turning to `O=C(NCc1cccc(Cl)c1)c1cnc(N2CCOCC2)c2ccccc12`, the inhibition came to 3.57%.

The values above are taken from PubChem BioAssay AID485344 (National Center for Advancing Translational Sciences (NCATS), 2010).
